Hit rate of the full screen: of about 7,900 compounds, about 400 (5.1%) showed an effect of 50% or more. The list shows a part of the results.

Chain of Parkinson's disease protein 7 (PARK7/DJ1) (Q99497 whole entry, looked up, the tested form may be a part): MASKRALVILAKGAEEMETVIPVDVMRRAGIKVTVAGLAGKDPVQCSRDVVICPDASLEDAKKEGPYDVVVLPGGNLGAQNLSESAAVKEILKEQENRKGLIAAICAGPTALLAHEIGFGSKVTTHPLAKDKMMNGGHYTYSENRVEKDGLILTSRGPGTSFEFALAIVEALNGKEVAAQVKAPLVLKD

The test has as its target Parkinson's disease protein 7 (PARK7/DJ1) (human, UniProt Q99497). The test is described as follows: primary screen, percent inhibition; read as competition with a fluorescent probe by fluorescence polarization; higher = more effect of the substance. As to conditions: 100 µM. The procedure, abridged: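 Fluorescence-polarization probe displacement (JYQ-107, 20 nM final, 2 h) after 2 h preincubation of PARK7 (0.2 μM final) with each fragment at 100 μM final. Read-out ex/em 480/520 nm; remaining activity derived from FP signal loss relative to reference controls.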
As for `C=CC(=O)N1CCOCC1c1cccn1C` (centres unmarked), the Inhibition % came to 7.42%. The same measure for `CCN1CCC(NC(=O)CCl)CC1.Cl`: 7.55%.

In the case of `N#CN(CC(=O)NCc1ccco1)c1ccc(F)cc1`, the Inhibition % worked out at 2.46%. The same measure for `N#Cc1nc(-c2ccccc2)no1`: 3.03%; for `C=CC(=O)Nc1ccc(F)c(C2CC2)c1`: 3.08%; for `CC1CN(C(=O)c2ccc(Cl)c(C#N)n2)C(C)CN1C` (centres unmarked): 2.96%. For `CN(Cc1cccc(Cl)c1)c1nccnc1C#N`, the Inhibition % was found to be 7.07%.

Consider `Cc1ccc(NC(=O)Cn2cnc(C#N)n2)cc1`, for which the Inhibition % was 16.2%.

With `Cn1ncc(C(=O)O)c1C#N`, the Inhibition % was 13.7%. As for `C=CC(=O)NC(NC(=O)C=C)c1ccccc1F`, the Inhibition % was determined as 14.4%. For the molecule `N#CC=Cc1ccc(Cl)cc1`, the Inhibition % came out at 10.4%.

On to `C=CC(=O)N1CCCc2ccccc2CC1`, for which the Inhibition % was determined as 10.2%. The same measure for `O=C(O)c1cccc(CS)c1`: 30.4%; for `C=CC(=O)N1CCC(n2cccc2)CC1`: 6.94%.

`C=CC(=O)N1CCOC(c2ccc(C(F)(F)F)cc2)C1` (centres unmarked): the Inhibition % amounted to 1.86%. The same measure for `CCOC(=O)c1cnn2ccc(C#N)nc12`: 14.6%; for `COc1ccc(NS(=O)(=O)C=Cc2ccccc2)cn1`: 59.9%; for `O=C(CCl)N1CCC(C(=O)N2CCCCCC2)CC1`: 15.1%. The same measure for `CC(=O)Nc1ccc(SC2CCOC2=O)cc1` (centres unmarked): 12.7%; for `CN(C)CCOc1ccccc1B1OC(C)(C)C(C)(C)O1`: 6.97%.

Take `CCc1cnccc1C(=O)N1CCCC(C2OCCO2)C1` (centres unmarked): the Inhibition % is 12.5%. The same measure for `C=CCn1c(S)nc2ccccc2c1=O`: 5.07%.

As for `C=CC(=O)N1CCCC(c2nc(CC)cs2)C1` (centres unmarked), the Inhibition % was 13.4%. The same measure for `N#Cc1ccccc1NC(=O)CCCl`: -0.986%; for `O=C(CCl)Nc1cccc(C(=O)O)c1`: 13.2%. In the case of `O=C(N1CCC1c1ccccc1)n1ccnc1` (centres unmarked), the Inhibition % is 11.7%. For `O=C(N[C@H]1CC[C@@H](CS(=O)(=O)F)C1)c1cccs1` (racemic), the Inhibition % is on record as 96.8%. The same measure for `CCOc1ccc(S(=O)(=O)n2ccc(C)n2)c(C)c1C`: 5.4%. The same measure for `O=C1CCC(=O)N1CCSc1ccc2ccccc2n1`: -0.573%; for `C=CC(=O)N1CCCC1(C)Cc1cccs1` (centres unmarked): 2.19%. The same measure for `CC(C)(C)OC(=O)N1CC[C@]2(B3OC(C)(C)C(C)(C)O3)C[C@@H]2C1` (racemic): 1.09%; for `CS(=O)(=O)Oc1ccc(C(F)(F)F)cc1`: 6.55%. With `CC1(C)OB(c2cnn(-c3ccncc3)c2)OC1(C)C`, the Inhibition % amounted to 6.06%. In the case of `C=CC(=O)NCC1CCC(C(=O)N(C)C)O1` (centres unmarked), the Inhibition % is recorded as 6.66%. As to `O=C(Oc1ccc(Cl)c2cccnc12)N1CCOCC1`, the Inhibition % was 11.1%. The same measure for `Cc1cc(C=C(C#N)C(=O)NC2CC2)c(C)n1C1CC1`: 9.94%; for `C=C(Cl)CSc1nc(N)cc(N)n1`: 18.5%. With `Cn1nccc1C12CCOCC1O2` (centres unmarked), the Inhibition % is 9.22%. The same measure for `C=CC(=O)N1CCC(Cc2ccc(OC)cc2)CC1`: 8.81%; for `OC(CC1CO1)c1ccccc1` (centres unmarked): 6.87%. As for `N#Cc1ccc(N2CCCC(c3nccs3)C2)cn1` (centres unmarked), the Inhibition % is -0.784%.

As to `CC(C)(C)OC(=O)N1CCCC(S(=O)(=O)F)C1` (centres unmarked), the Inhibition % is recorded as 10.7%. The same measure for `CC1(C)OB(c2cccc(Cl)c2)OC1(C)C`: -3.11%; for `C=CC(=O)Nc1ccc2c(c1)OCCCO2`: 3.17%; for `C=CC(=O)NC1CCc2nc(CC)nn2C1` (centres unmarked): 10.4%.

In the case of `N#Cc1ccc(S)nc1`, the Inhibition % came out at 31.9%. The same measure for `COc1ccc(S(=O)(=O)n2ccc(C)n2)cc1C`: 2.32%; for `C=CC(=O)NC1CCCc2nc(C)ncc21` (centres unmarked): 2.84%; for `C=CCNC(=O)C(C#N)=Cc1cccc(C)c1`: 10.9%. In the case of `Cl.O=C(CCl)Nc1nc(CN2CCCCC2)cs1`, the Inhibition % is 3.25%. The same measure for `C=CC(=O)NC1CCN(C(C)(C)C)C1=O` (centres unmarked): 4.3%; for `O=C(CCl)NCc1ccc(OC(F)(F)F)cc1`: 5.21%. The same measure for `C=CC(=O)N1CCN(CC(C)C)C(=O)C1`: 0.18%; for `Cc1csc2c(=O)n(CC3OCCO3)cnc12`: 8.19%; for `Cl.O=S1(=O)C=CC(NCc2ccccc2)C1` (centres unmarked): 9.33%.

Take `COC(=O)c1ccc(NC(=O)CCl)cc1`: the Inhibition % came to 60.9%. The same measure for `C=CC(=O)Nc1cnn(-c2ccncc2)c1C(F)F`: 16.6%. The same measure for `C=CC(=O)NC1CCCOc2c(Cl)cccc21` (centres unmarked): 5.57%. The same measure for `C=CC(=O)N1CCC(n2cc(C)cn2)CC1`: 10.4%; for `CCOC1CC(Nc2ccc(C#N)nc2)C12CCC2` (centres unmarked): 1.47%; for `NC(=O)Nc1ccc(C(=O)CCl)cc1`: 89.6%.

Consider `Cc1noc(C(C)NC(=O)Cc2ccc(S(=O)(=O)F)cc2)n1` (centres unmarked), for which the Inhibition % is 41.8%. The same measure for `COc1cc(C)c(S(=O)(=O)n2nc(C)cc2C)cc1C`: 2.71%; for `C=CC(=O)N[C@H]1C[C@H](SC)C1`: 8.6%; for `Cc1nc(C=CC(=O)N2CC(C)NC(C)C2)cs1` (centres unmarked): 14.8%. The same measure for `C=CC(=O)N1CCC(C(N)=O)(c2ccccc2)CC1`: 6.37%; for `CC1CC(Sc2nncn2C(C)C)C(=O)O1` (centres unmarked): 2.25%; for `C=CC(=O)NCc1ccc(Cn2cccn2)cc1`: 5.08%.

On to `C=CC(=O)NCCc1nc(C)oc1C`, for which the Inhibition % stood at 8.23%.

As to `CN(C)C(=O)Oc1ccc(OC(=O)N(C)C)cc1`, the Inhibition % is 1.92%.

Regarding `CC1CCN(C(N)=C(C#N)C(=O)Nc2ccccc2)CC1`, the Inhibition % came to 7.29%. The same measure for `C=C(C#N)C(O)c1cccnc1` (centres unmarked): 0.585%; for `C=CC(=O)NC1CCN(Cc2ccc(F)cc2)CC1`: 16%. The same measure for `C=CC(=O)NCCc1cscn1`: 5.76%. On to `CC1(C)OB(c2cccc(F)c2C(F)(F)F)OC1(C)C`, for which the Inhibition % stood at 10.8%. The same measure for `C=CC(=O)N1CSCC1C(=O)N1CCCC1` (centres unmarked): 29.2%. The same measure for `C=CC(=O)N1CCc2cc(OCC)ccc2C1`: 17.1%; for `FC(F)(F)c1ccnc(S)n1`: 25.1%; for `CNc1cc(B2OC(C)(C)C(C)(C)O2)ccn1.Cl`: 6.33%.

As to `C=C(C)CN(CC)C(=O)Cn1cnc(C#N)n1`, the Inhibition % is given as 6.74%.

With `C=CC(=O)N1CC(CC)OC2(CCOC2)C1` (centres unmarked), the Inhibition % came out at 0.956%.

With `C=CC(=O)N1CCN(Cc2ccco2)CC1`, the Inhibition % is listed as 5.39%. The same measure for `O=C1OCCC1N1CCC(c2nc3ccccc3o2)CC1` (centres unmarked): 4.11%. With `N#Cc1ccc(NC(=O)CN2CCSC2=O)cc1Cl`, the Inhibition % is recorded as 4.25%. Consider `O=S(=O)(F)c1cc(Br)ccc1Cl`, for which the Inhibition % is 88.4%. Consider `C=CC(=O)N1CCC(Cn2ccnn2)CC1`, for which the Inhibition % is 3.98%. The same measure for `CC(C)(C)OC(=O)N1C2C=C(B3OC(C)(C)C(C)(C)O3)CC1CC2` (centres unmarked): 0%. The same measure for `N#Cc1ccc(N2CCC3(CCOC3)C2)cn1` (centres unmarked): -4.97%.

`O=C(c1cccnc1S)N1CCC2(CCOC2)C1` (centres unmarked): the Inhibition % came out at 4.25%. In the case of `Cc1nc2sccn2c1C=C(C#N)c1ccccn1`, the Inhibition % is 1.34%. The same measure for `O=C(CCl)Nc1nncs1`: 4.4%; for `C=CC(=O)N1CCOC2CCN(Cc3ccccc3)CC21` (centres unmarked): 5.11%. The same measure for `N#CSc1ccc(N2CCOCC2)cc1`: 8.87%. The same measure for `O=c1[nH]c(-c2cccs2)no1`: 3.67%. Take `C=CC(=O)N1C[C@@H](C)[C@H](C(=O)N2CCOCC2)C1` (racemic): the Inhibition % is listed as 5.41%. The same measure for `CC1CC(N(C)Cc2ccc3c(c2)OCO3)C(=O)O1` (centres unmarked): 3.52%; for `C=CC(=O)NCC1CCC2(CCC2)CO1` (centres unmarked): 5.32%. Regarding `CC1(C)OB(c2ccc(N)cc2F)OC1(C)C`, the Inhibition % worked out at 5.89%. The same measure for `CN(C)Cc1ccc(CNC(=O)CCl)cc1.Cl`: 13.8%. Take `Cn1cc(C=CC(=O)N2CCc3ccccc3C2)cn1`: the Inhibition % is 11.8%. On to `CCc1cccc(N(C#N)CCC(N)=O)c1`, for which the Inhibition % is recorded as 0.798%. `Cc1cccc(NC(=O)N2CCCC23CCOC3=O)n1` (centres unmarked): the Inhibition % is given as 11.8%. For `O=C(CCl)NC(=O)NC12CC3CC(CC(C3)C1)C2`, the Inhibition % is on record as 0.699%. The same measure for `C=CC(=O)N1CCN(c2ncnc3sc(C)cc23)CC1`: 0.554%; for `O=C(CCl)Nc1cc(C(F)(F)F)ccc1N1CCCC1`: 0.54%.

As to `O=C(O)c1ccc(SC2CCOC2=O)cc1` (centres unmarked), the Inhibition % was 2.85%. The same measure for `N#Cc1ncn(CC(=O)c2cccc(Cl)c2Cl)n1`: 7.31%; for `C=CC(=O)NCc1nc(C)c2ccccc2n1`: -0.293%; for `C=CC(=O)N1CCN(C)C(=O)C1(C)C`: 11.1%. The same measure for `O=c1c2ccccc2nc(S)n1CCO`: -0.125%; for `C=CC(=O)Nc1ccc2nc(N3CCOCC3)oc2c1`: 5.38%. The same measure for `CC(C)n1cc(B2OC(C)(C)C(C)(C)O2)cn1`: 3.03%. Consider `C=CC(=O)N1CCC[C@@H]2O[C@H](c3ccccc3)C[C@@H]21` (racemic), for which the Inhibition % is reported as 5.3%. The same measure for `O=C1C[C@H](NS(=O)(=O)c2cnc3ccsc3c2)CO1`: 5.74%; for `CCN(C(=O)Cn1cnc(C#N)n1)C1=CCCCC1`: 6.47%; for `C=CC(=O)N1CCOC2(CCc3ccccc32)C1` (centres unmarked): 3.26%. As for `N#Cc1ccc2cc(N)ccc2n1`, the Inhibition % came out at 101%.

Consider `O=C(CCl)c1cn(-c2ccc(F)cc2)nn1`, for which the Inhibition % turned out to be 5.02%. The same measure for `C=CC(=O)N1CC(C)(c2ccccc2F)C1`: 28.6%; for `CCN1C(=O)C(C)SC1=C(C#N)C(=O)NCc1ccco1` (centres unmarked): 0.0122%; for `O=C1SCCN1CC(=O)N1CCc2ccccc21`: 3.23%.

For `C=CC(=O)NC(CO)c1ccsc1` (centres unmarked), the Inhibition % came to 11%.
